Source: the supplement of paper PMC7125110
± gives the standard error. Variants at the floor of the assay are shown more often than the library holds them.

B1: glmS ribozyme (parent)
chain: AUAAAAGCGCCAGAACUACAGAAAUGUAGUUGACGAGGAGGAGGUUUAUCGAAUUUUCGGCGGAUGCCUCCAAA

Key:
Conditions in all cases: with glucosamine-6-phosphate
glucosamine-6-phosphate [1] = variants of: B1; assay: self-cleavage kobs at 40 uM GlcN6P; higher = faster cleavage; RNA array
How it was run: (§1)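 Tracking of barcoded ribozyme variants used a hybridised Cy3 probe at 37 °C, after in situ transcription by E. coli RNA polymerase on sequenced MiSeq chips. The flowed solution held 40 μM to 10 mM glucosamine-6-phosphate in HEPES/KCl/Mg(OAc)2 buffer, and imaging ran over ~14 h. kobs was taken from exponential decay fits of normalised per-tile medians, and kcat and KM from weighted Michaelis–Menten fits.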

glucosamine-6-phosphate [2] = variants of: B1; assay: self-cleavage kobs at 2500 uM GlcN6P; higher = faster cleavage; RNA array
How it was run: as §1

glucosamine-6-phosphate [3] = variants of: B1; assay: self-cleavage kobs at 640 uM GlcN6P; higher = faster cleavage; RNA array
How it was run: as §1

glucosamine-6-phosphate [4] = variants of: B1; assay: self-cleavage kobs at 160 uM GlcN6P; higher = faster cleavage; RNA array
How it was run: as §1

glucosamine-6-phosphate [5] = variants of: B1; assay: self-cleavage kobs at 10000 uM GlcN6P; higher = faster cleavage; RNA array
How it was run: as §1

Variant	self-cleavage kobs at 40 uM GlcN6P (glucosamine-6-phosphate [1])	self-cleavage kobs at 2500 uM GlcN6P (glucosamine-6-phosphate [2])	self-cleavage kobs at 640 uM GlcN6P (glucosamine-6-phosphate [3])	self-cleavage kobs at 160 uM GlcN6P (glucosamine-6-phosphate [4])	self-cleavage kobs at 10000 uM GlcN6P (glucosamine-6-phosphate [5])
A33G A39U U56G	< 1e-05 s⁻¹	< 1e-05 s⁻¹	–	–	–
G32C A52C	< 1e-05 s⁻¹	< 1e-05 s⁻¹	< 1e-05 s⁻¹	< 1e-05 s⁻¹	–
A33G A52C	< 1e-05 s⁻¹	< 1e-05 s⁻¹	–	< 1e-05 s⁻¹	< 1e-05 s⁻¹
A33C G41C U47C A53G U54C U65G C70U	< 1e-05 s⁻¹	–	–	–	< 1e-05 s⁻¹
G32C G59A A64U	< 1e-05 s⁻¹	–	–	–	< 1e-05 s⁻¹
G32U U46G C70A	< 1e-05 s⁻¹	–	–	–	–
A33G U49G	< 1e-05 s⁻¹	< 1e-05 s⁻¹	< 1e-05 s⁻¹	< 1e-05 s⁻¹	< 1e-05 s⁻¹
G32C U54A U56G	< 1e-05 s⁻¹	–	–	–	–
A33U A64C	< 1e-05 s⁻¹	–	< 1e-05 s⁻¹	< 1e-05 s⁻¹	–
A33G G37A U55A	< 1e-05 s⁻¹	–	–	–	–
G32U A36G U45C C68G	< 1e-05 s⁻¹	–	–	–	–
G32C G38C	< 1e-05 s⁻¹	–	< 1e-05 s⁻¹	< 1e-05 s⁻¹	–
A33U A52U	< 1e-05 s⁻¹	–	< 1e-05 s⁻¹	–	–
A33G C61G	< 1e-05 s⁻¹	–	< 1e-05 s⁻¹	< 1e-05 s⁻¹	< 1e-05 s⁻¹
G32C G63C	< 1e-05 s⁻¹	< 1e-05 s⁻¹	–	–	–
A33G G35A	< 1e-05 s⁻¹	–	< 1e-05 s⁻¹	< 1e-05 s⁻¹	–
A33C G37C	< 1e-05 s⁻¹	< 1e-05 s⁻¹	< 1e-05 s⁻¹	–	–
A33C G44A	< 1e-05 s⁻¹	< 1e-05 s⁻¹	< 1e-05 s⁻¹	< 1e-05 s⁻¹	< 1e-05 s⁻¹
A33G G40U	< 1e-05 s⁻¹	< 1e-05 s⁻¹	< 1e-05 s⁻¹	–	< 1e-05 s⁻¹
A33G G40A	< 1e-05 s⁻¹	< 1e-05 s⁻¹	< 1e-05 s⁻¹	< 1e-05 s⁻¹	< 1e-05 s⁻¹
G32U G63U C71A	< 1e-05 s⁻¹	–	–	–	–
A33G A42G G63U A64U	< 1e-05 s⁻¹	< 1e-05 s⁻¹	–	< 1e-05 s⁻¹	< 1e-05 s⁻¹
G32U U49C	< 1e-05 s⁻¹	–	< 1e-05 s⁻¹	< 1e-05 s⁻¹	–
A33C C61U	< 1e-05 s⁻¹	–	< 1e-05 s⁻¹	< 1e-05 s⁻¹	< 1e-05 s⁻¹
G32C G44C U55C C68A C70U	< 1e-05 s⁻¹	–	–	–	–

Variant	self-cleavage kobs at 40 uM GlcN6P (glucosamine-6-phosphate [1])	self-cleavage kobs at 2500 uM GlcN6P (glucosamine-6-phosphate [2])	self-cleavage kobs at 640 uM GlcN6P (glucosamine-6-phosphate [3])	self-cleavage kobs at 160 uM GlcN6P (glucosamine-6-phosphate [4])	self-cleavage kobs at 10000 uM GlcN6P (glucosamine-6-phosphate [5])
G32U A52G C68G	0.000277 ± 9.2e-05 s⁻¹	–	–	–	0.000398 ± 9.5e-05 s⁻¹
A33U A53U A64U	< 1e-05 s⁻¹	–	–	–	< 1e-05 s⁻¹
A33G G51A A52C G62A	< 1e-05 s⁻¹	–	–	–	–
A33G G43C	< 1e-05 s⁻¹	–	< 1e-05 s⁻¹	–	< 1e-05 s⁻¹
A33C G38C G44C G60C G62C	< 1e-05 s⁻¹	–	–	–	–
G32C U45C	< 1e-05 s⁻¹	–	< 1e-05 s⁻¹	–	–
A33C U49A C61U	< 1e-05 s⁻¹	< 1e-05 s⁻¹	–	–	–
A33U A42U U46A	< 1e-05 s⁻¹	–	–	–	–
A33C C50U	< 1e-05 s⁻¹	< 1e-05 s⁻¹	< 1e-05 s⁻¹	–	< 1e-05 s⁻¹
G32C U45C U69A	< 1e-05 s⁻¹	–	–	–	–
A33C A48U C58G	< 1e-05 s⁻¹	–	< 1e-05 s⁻¹	–	< 1e-05 s⁻¹
G32U G35U A48U C67G C71G	< 1e-05 s⁻¹	–	–	–	< 1e-05 s⁻¹
G32C U45C C58G G59U	< 1e-05 s⁻¹	–	–	–	–
G32U G37C G40C C68A	< 1e-05 s⁻¹	–	–	–	< 1e-05 s⁻¹
A33C U49C	< 1e-05 s⁻¹	< 1e-05 s⁻¹	< 1e-05 s⁻¹	< 1e-05 s⁻¹	< 1e-05 s⁻¹
A33G U57C	< 1e-05 s⁻¹	–	< 1e-05 s⁻¹	–	< 1e-05 s⁻¹
G32U C34U A42C	< 1e-05 s⁻¹	< 1e-05 s⁻¹	–	–	–
A33C G35U A36G C67U	< 1e-05 s⁻¹	–	–	–	< 1e-05 s⁻¹
A33G G59U U69C	< 1e-05 s⁻¹	–	–	–	< 1e-05 s⁻¹
A33G A48U	< 1e-05 s⁻¹	< 1e-05 s⁻¹	< 1e-05 s⁻¹	–	< 1e-05 s⁻¹
G32U A33C U45G	< 1e-05 s⁻¹	< 1e-05 s⁻¹	–	–	–
A33C G43A	< 1e-05 s⁻¹	–	< 1e-05 s⁻¹	< 1e-05 s⁻¹	< 1e-05 s⁻¹
A33C G43C	< 1e-05 s⁻¹	–	–	–	–
A33C G43U	< 1e-05 s⁻¹	< 1e-05 s⁻¹	< 1e-05 s⁻¹	< 1e-05 s⁻¹	< 1e-05 s⁻¹
A33G U54A	< 1e-05 s⁻¹	< 1e-05 s⁻¹	–	–	< 1e-05 s⁻¹

Variant	self-cleavage kobs at 40 uM GlcN6P (glucosamine-6-phosphate [1])	self-cleavage kobs at 2500 uM GlcN6P (glucosamine-6-phosphate [2])	self-cleavage kobs at 640 uM GlcN6P (glucosamine-6-phosphate [3])	self-cleavage kobs at 160 uM GlcN6P (glucosamine-6-phosphate [4])	self-cleavage kobs at 10000 uM GlcN6P (glucosamine-6-phosphate [5])
A33C A36U	< 1e-05 s⁻¹	< 1e-05 s⁻¹	–	–	–
A33C U55C	< 1e-05 s⁻¹	–	< 1e-05 s⁻¹	< 1e-05 s⁻¹	–
G32U G35C	< 1e-05 s⁻¹	–	< 1e-05 s⁻¹	< 1e-05 s⁻¹	< 1e-05 s⁻¹
G32U A48U C71A	< 1e-05 s⁻¹	–	–	–	< 1e-05 s⁻¹
G32U G38A G44A U65A	< 1e-05 s⁻¹	–	–	–	–
G32U U47C G51A C67A	< 1e-05 s⁻¹	–	–	–	–
G32U C34G C68G	4.91e-05 ± 1.8e-05 s⁻¹	–	–	–	–
A33G A39G G41U C70G	< 1e-05 s⁻¹	–	–	–	–
A33G C34A	< 1e-05 s⁻¹	–	–	–	< 1e-05 s⁻¹
G32C C50A	< 1e-05 s⁻¹	–	–	< 1e-05 s⁻¹	< 1e-05 s⁻¹
A33C A39U U54G C61U	< 1e-05 s⁻¹	–	–	–	–
A33U A48G U55A C70U	< 1e-05 s⁻¹	–	–	–	–
G32C A48C	< 1e-05 s⁻¹	< 1e-05 s⁻¹	< 1e-05 s⁻¹	< 1e-05 s⁻¹	–
G32U G44A	< 1e-05 s⁻¹	–	–	–	–
A33G U45G	< 1e-05 s⁻¹	< 1e-05 s⁻¹	< 1e-05 s⁻¹	< 1e-05 s⁻¹	< 1e-05 s⁻¹
G32U A36C G63A	< 1e-05 s⁻¹	–	–	< 1e-05 s⁻¹	–
A33C G35C	< 1e-05 s⁻¹	–	< 1e-05 s⁻¹	< 1e-05 s⁻¹	< 1e-05 s⁻¹
A33G A36G G43A C71U	< 1e-05 s⁻¹	< 1e-05 s⁻¹	< 1e-05 s⁻¹	–	–
A33G U46C	< 1e-05 s⁻¹	< 1e-05 s⁻¹	< 1e-05 s⁻¹	< 1e-05 s⁻¹	< 1e-05 s⁻¹
G32C G43A	< 1e-05 s⁻¹	–	< 1e-05 s⁻¹	< 1e-05 s⁻¹	< 1e-05 s⁻¹
G32U G44U U45A	< 1e-05 s⁻¹	–	–	–	–
A33G A53G	< 1e-05 s⁻¹	–	–	< 1e-05 s⁻¹	–
A33G G37A G51U A53U A64G	< 1e-05 s⁻¹	–	–	–	< 1e-05 s⁻¹
A33G A64C	< 1e-05 s⁻¹	–	–	< 1e-05 s⁻¹	–
A33C G35A A48C	< 1e-05 s⁻¹	< 1e-05 s⁻¹	< 1e-05 s⁻¹	< 1e-05 s⁻¹	< 1e-05 s⁻¹

Variant	self-cleavage kobs at 40 uM GlcN6P (glucosamine-6-phosphate [1])	self-cleavage kobs at 2500 uM GlcN6P (glucosamine-6-phosphate [2])	self-cleavage kobs at 640 uM GlcN6P (glucosamine-6-phosphate [3])	self-cleavage kobs at 160 uM GlcN6P (glucosamine-6-phosphate [4])	self-cleavage kobs at 10000 uM GlcN6P (glucosamine-6-phosphate [5])
G32C C34G	< 1e-05 s⁻¹	< 1e-05 s⁻¹	< 1e-05 s⁻¹	–	< 1e-05 s⁻¹
G32U U55A U65C	< 1e-05 s⁻¹	–	–	–	–
G32C A52C G63A	< 1e-05 s⁻¹	–	–	–	–
G32C G40C G43C A64C	< 1e-05 s⁻¹	–	–	–	–
G32U U45A	0.000103 ± 3.9e-05 s⁻¹	0.000762 ± 0.00034 s⁻¹	0.000279 ± 6.8e-05 s⁻¹	9.56e-05 ± 2.1e-05 s⁻¹	–
A33G U55C	< 1e-05 s⁻¹	< 1e-05 s⁻¹	–	–	< 1e-05 s⁻¹
A33C G35C C68U	< 1e-05 s⁻¹	–	–	–	–
G32U G35U A64U	< 1e-05 s⁻¹	–	–	–	< 1e-05 s⁻¹
G32U C34U U55A	< 1e-05 s⁻¹	–	–	–	–
G32C U69G	0.000189 ± 3.1e-05 s⁻¹	–	–	–	–
A33C G60C	< 1e-05 s⁻¹	< 1e-05 s⁻¹	< 1e-05 s⁻¹	< 1e-05 s⁻¹	< 1e-05 s⁻¹
A33C U45G	< 1e-05 s⁻¹	–	–	< 1e-05 s⁻¹	–
G32U A39G U57G G62A G66U C67U C70G C71U	< 1e-05 s⁻¹	–	–	–	< 1e-05 s⁻¹
G32U G38C U65C C70G	< 1e-05 s⁻¹	–	–	–	< 1e-05 s⁻¹
A33C U57A	< 1e-05 s⁻¹	–	–	< 1e-05 s⁻¹	–
G32C G62U	< 1e-05 s⁻¹	< 1e-05 s⁻¹	–	< 1e-05 s⁻¹	< 1e-05 s⁻¹
G32C G62C	< 1e-05 s⁻¹	< 1e-05 s⁻¹	< 1e-05 s⁻¹	< 1e-05 s⁻¹	< 1e-05 s⁻¹
A33U A42G	< 1e-05 s⁻¹	6.02e-05 ± 1.3e-05 s⁻¹	–	–	8.89e-05 ± 3e-05 s⁻¹
A33U A42U	< 1e-05 s⁻¹	–	< 1e-05 s⁻¹	–	–
A33U A48G A53U U57C	< 1e-05 s⁻¹	–	–	–	< 1e-05 s⁻¹
A33C C34G C71U	< 1e-05 s⁻¹	–	–	–	–
A33C C61U C71A	< 1e-05 s⁻¹	–	–	–	< 1e-05 s⁻¹
G32C C61U	< 1e-05 s⁻¹	< 1e-05 s⁻¹	< 1e-05 s⁻¹	< 1e-05 s⁻¹	< 1e-05 s⁻¹
G32U C34G C67U	< 1e-05 s⁻¹	–	–	–	–
A33C C71A	< 1e-05 s⁻¹	< 1e-05 s⁻¹	< 1e-05 s⁻¹	< 1e-05 s⁻¹	–
